Test results as given in publication PMC4336329 (PLoS ONE, 2015).
Out of some 310,000 compounds screened, about 2,200 (0.71%) showed an effect of 50% or more. The effect is printed as a negative number. The list shows a part of the results.

Target: human ether-à-go-go-related gene (hERG) potassium channel (human, UniProt Q12809)
Test: primary screen, population patch clamp on CHO cells stably expressing hERG

human ether-à-go-go-related gene (hERG) potassium channel, sequence (Q12809 whole entry, looked up): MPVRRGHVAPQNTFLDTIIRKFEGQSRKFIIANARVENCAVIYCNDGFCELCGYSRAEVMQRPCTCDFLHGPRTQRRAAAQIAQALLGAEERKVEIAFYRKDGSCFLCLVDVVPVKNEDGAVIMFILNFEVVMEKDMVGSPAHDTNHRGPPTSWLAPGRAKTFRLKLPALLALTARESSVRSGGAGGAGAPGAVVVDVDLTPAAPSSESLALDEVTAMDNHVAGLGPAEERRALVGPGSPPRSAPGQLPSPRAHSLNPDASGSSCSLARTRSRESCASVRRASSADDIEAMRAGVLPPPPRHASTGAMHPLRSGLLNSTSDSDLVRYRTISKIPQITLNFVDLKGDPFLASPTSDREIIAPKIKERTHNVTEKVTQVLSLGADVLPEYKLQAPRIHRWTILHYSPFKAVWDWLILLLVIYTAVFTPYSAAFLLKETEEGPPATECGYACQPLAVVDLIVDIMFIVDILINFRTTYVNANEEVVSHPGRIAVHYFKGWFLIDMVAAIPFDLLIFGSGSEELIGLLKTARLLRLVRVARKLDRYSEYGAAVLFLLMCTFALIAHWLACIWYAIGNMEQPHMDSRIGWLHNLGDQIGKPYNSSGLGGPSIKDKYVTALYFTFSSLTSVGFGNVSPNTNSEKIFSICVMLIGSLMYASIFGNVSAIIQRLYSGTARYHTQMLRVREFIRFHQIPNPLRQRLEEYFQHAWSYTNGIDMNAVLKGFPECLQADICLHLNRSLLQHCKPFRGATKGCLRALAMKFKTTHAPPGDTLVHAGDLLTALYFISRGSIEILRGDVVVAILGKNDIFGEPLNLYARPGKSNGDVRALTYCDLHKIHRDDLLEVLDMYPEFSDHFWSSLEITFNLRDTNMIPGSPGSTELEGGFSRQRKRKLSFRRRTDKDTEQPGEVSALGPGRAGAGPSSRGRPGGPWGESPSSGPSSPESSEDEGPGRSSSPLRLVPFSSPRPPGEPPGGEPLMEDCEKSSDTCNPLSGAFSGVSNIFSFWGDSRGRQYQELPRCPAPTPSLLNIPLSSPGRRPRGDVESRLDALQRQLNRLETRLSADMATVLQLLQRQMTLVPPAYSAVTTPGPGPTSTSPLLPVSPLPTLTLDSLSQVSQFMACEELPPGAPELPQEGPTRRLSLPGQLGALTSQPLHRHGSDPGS

Compound | hERG current change (%, negative = inhibition) at 1uM
CC(=O)Nc1scc(-c2ccccc2)[n+]1-c1ccc(C)cc1.[Br-] | 15.5%
CCCCCCNC(=O)c1c(O)c2ccccc2[nH]c1=O | 16.7%
Cc1ccc(S(=O)(=O)c2c(C)nn(C(C)(C)C)c2OC(=O)C(C)C)cc1 | 6.09%
COCCC(=O)N1CCC(Oc2ccc(C(=O)N(C)Cc3cc(C)no3)cc2)CC1 | 11%
Cc1nc(SCC(=O)NCc2ccc3c(c2)OCO3)c(C#N)c2c1CCCC2 | 2.38%
CC(C)CN(C1CCS(=O)(=O)C1)S(=O)(=O)c1ccc(C(C)C)cc1 (centres unmarked) | 0.473%
O=C(c1cc(-c2ccc(Br)cc2)on1)N1CCCCCC1 | 11.5%
Cc1cc(C)cc(NC(=S)NCCN(C2CCCCC2)C2CCCC2)c1 | -59.7%
Cc1ccc(-n2nc3c(=O)n(CC(=O)NCc4ccccn4)nc(C)c3c2C)cc1 | 8.87%
NC(=O)c1ccc([N+](=O)[O-])cc1SCc1ccccc1 | 9.07%
COc1cc(C(=O)NCC2(c3ccccc3)CCCC2)cc(OC)c1OC | 6.99%
CCCCOc1ccc(C(C)NC(=O)CCS(=O)(=O)Cc2ccccc2F)cc1 (centres unmarked) | 8.41%
COC(=O)C1=C(c2cccc(C#N)c2)C[C@@H]2CC[C@H]1N2C(=O)NCc1ccc(F)cc1 | 10.4%
Cc1nc(-c2cccc(NC(=O)Cc3ccccc3)c2)cs1 | 6.93%
S=C(NCCc1ccccc1)Nc1nccs1 | 6.27%
Nc1ccc(CC2SC(=O)NC2=O)cc1 (centres unmarked) | 9.3%
O=C(Nc1ccccc1)Nc1cccc(-c2nnco2)c1 | 17.9%
Nc1cc(N)nc(SCC(=O)Nc2ccccc2)n1 | 7.86%
Cc1cccc(-n2ncc3c(NCCCO)ncnc32)c1 | 14.5%
CCOP(=O)(OCC)C(NC(=O)c1cccc([N+](=O)[O-])c1)C(Cl)(Cl)Cl (centres unmarked) | 13%
O=C(Cc1cccs1)NCCN1CCOCC1 | 12.3%
CC(NC(=O)c1ccc(CS(C)(=O)=O)cc1)c1ccc(-n2ccnc2)cc1 (centres unmarked) | 8.47%
CC(C)(CO)NS(=O)(=O)c1ccc2c(c1)Cc1cc(S(=O)(=O)NC(C)(C)CO)ccc1-2 | 9.43%

Compound | hERG current change (%, negative = inhibition) at 1uM
CCOCCCNC(=O)CN1C(=O)c2ccccc2Sc2ncccc21 | 12.3%
CCOC(=O)c1[nH]c2cc(OC)c(OC)cc2c1N | 11.4%
O=C(OCc1ccccc1)/C(=C/c1cccc(Br)c1)NC(=O)c1ccco1 | -9.62%
Cc1ccccc1-n1c(C)c(C#N)c(=O)c(-[n+]2ccccc2)c1[S-] | 12.5%
COc1ccc(NC(=S)N2CCN(C(c3ccccc3)c3ccccc3)CC2)cc1OC | 4.63%
O=C(Nc1cc([N+](=O)[O-])ccc1F)C1CC1 | 14.7%
CCN1CCC(N2CCN(c3ccccc3OC)CC2)CC1 | 18.4%
Cc1cccc(N=C(N2CCOCC2)P(=O)(N2CCOCC2)N2CCOCC2)c1 | 12.5%
CCn1c(COc2cccc3cccnc23)nnc1SCC(=O)O | 4.82%
CN(C)S(=O)(=O)c1cccc(C(=O)NCCNC(=O)c2cccc(S(=O)(=O)N(C)C)c2)c1 | 10.6%
COc1ccc(/C=N/NC(=O)C(=O)Nc2ccccn2)cc1OC | 7.61%
CCOC(=O)c1[nH]c2ccc(Br)cc2c1NC(=O)CCN1CCCC(C)C1 (centres unmarked) | -66.8%
COC(=O)C1=C(C)N2C(=O)CSC2=NC1c1ccc2c(c1)OCO2 (centres unmarked) | -1.18%
Cn1c(N)c(C(=O)COC(=O)CCC(=O)c2cccs2)c(=O)n(C)c1=O | 1.35%
CCc1nn2c(=O)cc(COc3ccc(NC(=O)c4ccco4)cc3)nc2s1 | 7.74%
Cc1ccccc1C(=O)N=c1sccn1C | 22.7%
O=C(Cc1c(Cl)cccc1Cl)OCC(=O)N1CCc2ccccc2C1 | 8.9%
CCOc1ccc(/C=C2\SC(=S)N(CCC(=O)Nc3ccccc3C(=O)O)C2=O)cc1 | 15.7%
CC(C)c1nnc(NC(=O)C2CCCN2C(=O)Nc2cccc(Cl)c2)s1 (centres unmarked) | 8%
N#CC1(c2ccccc2)CCCN1C(=O)c1ccco1 (centres unmarked) | 9.64%
CC(C)(C)OC(=O)N1CCC[C@@H]1CO | -7.52%
Cc1ccc(-n2nc3c(c2NC(=O)c2cccs2)CSC3)cc1 | 11.3%
Nn1c(SCc2ccccc2)nc2c(cnn2-c2ccccc2)c1=O | 0.0219%

Compound | hERG current change (%, negative = inhibition) at 1uM
Cc1cc(C(=O)NC2CCCN(Cc3ccc(Cl)cc3)C2)n(C)n1 (centres unmarked) | -11.5%
CC(=O)Nc1ccc(S(=O)(=O)Nc2cc(C)ccn2)cc1 | 11.2%
O=C(O)C1CCN(C(=O)COc2ccc3c4c(c(=O)oc3c2)CCC4)CC1 | 10.3%
CC1CCCC(C)N1/N=C/c1ccc(C#N)cc1 (centres unmarked) | -0.56%
CCc1nnc(NS(=O)(=O)c2ccc(N/C=C\C(=O)c3ccc4ccccc4c3)cc2)s1 | 2.9%
O=C(c1cc2nc(-c3ccccc3)cc(-c3ccccc3)n2n1)N1CCN(C(=O)c2ccco2)CC1 | -13.6%
COc1ccc(SCc2noc(C(=O)NCC3CCCO3)c2C(=O)O)cc1 (centres unmarked) | 10.4%
CCOC(=O)c1c(C)[nH]c(C)c1C(=O)COC(=O)c1nc2nccc(C)n2n1 | 11.4%
Cc1ccc(NC2CC(=O)N(c3ccc(N4CCCCC4)cc3)C2=O)cc1 (centres unmarked) | 15.1%
O=C(CCCN1C(=O)/C(=C/c2ccccc2)SC1=S)N1CCOCC1 | 6.3%
COc1ccc(-c2ccnc3nc(N4CCN(c5ccccc5)CC4)nn23)cc1 | 14.9%
CCC(=O)Nc1cccc2cccnc12 | 7.92%
Cc1cc(C(=O)OCC(=O)N2CC(C)CC(C)C2)c(C)o1 (centres unmarked) | 7.25%
CCN1CCCCC(=N/O)/C(=N/O)CCCC1 | 6.6%
O=C(O)CCCCCNC(=O)CCn1cnc2ccccc2c1=O | 8.25%
Cc1n[nH]c(=O)nc1N1CCN(c2ccccc2)CC1 | 10.7%
O=C(CNC(=O)C(c1ccccc1)c1ccccc1)N/N=C\c1ccc(C(=O)O)cc1 | 13.2%
O=C(CSc1nc2nn(-c3ccccc3)c(=O)c-2c2n1CCCCC2)NCCCc1ccccc1 | -8.94%
CCn1cc(C(=O)N2CCN(C3CCCCC3)CC2)c2cc(OC)c(OC)cc2c1=O | -2.15%
O=C(NNC(=O)c1ccc(=O)[nH]c1)c1ccc(NS(=O)(=O)c2cccs2)cc1 | 3.74%
O=c1[nH]c2ccccc2nc1Cc1ccc([N+](=O)[O-])cc1 | 5.25%
O=C(CNC(=O)c1ccccc1F)OCCOc1cccc(Cl)c1 | 10%
COCCN(C)Cc1cn(-c2ccc(F)cc2F)nc1-c1ccccc1C | 6.39%

Compound | hERG current change (%, negative = inhibition) at 1uM
COc1ccc(CCNC(=O)CSC2=Nc3ccccc3C3=NC(C(C)C)C(=O)N23)cc1OC (centres unmarked) | 14.9%
Cc1nc(Cl)c(C(=O)NC(C)(C)C)c(C)c1Cl | 7.59%
CCc1ccc(NC(=O)C(C)OC(=O)C2CCC(=O)N2)cc1 (centres unmarked) | 17.9%
COc1ccc(-c2ccnc(-c3ccncc3)n2)cc1 | 9.75%
CC(C)OCC(O)CN1CC2C[C@@H](C1)Cn1c2cccc1=O (some centres unmarked) | 11.6%
CC(=O)n1cc([C@@H]2C=C(C(=O)NCc3ccccc3)O[C@H](OCc3ccc(CO)cc3)C2)c2ccccc21 | -7.87%
O=C(c1ccc(Cl)cc1)c1ccccc1C(=O)N1CCOCC1 | 7.71%
CCOc1cc(NC(=S)NCCCN2CCOCC2)c(OCC)cc1NC(=O)c1ccco1 | -1.86%
COc1ccc(OC)c(NC(=O)COc2coc(CN3CCc4ccccc43)cc2=O)c1 | 4.25%
COC(=O)CN1C(=O)Nc2ccc(Br)cc2C1c1ccccc1Cl (centres unmarked) | -8.8%
COc1ccc(C2(C)NC(=O)N(CC(=O)c3cc(C)n(C4CC4)c3C)C2=O)cc1 (centres unmarked) | -4.87%
Cc1nccn1CC1CCc2c(c3ccccc3n2C)C1=O.Cl (centres unmarked) | -5.8%
CC(C)CNS(=O)(=O)c1ccc(CCC(=O)NCCc2ccccc2)cc1 | 5.19%
COc1ccc(S(=O)(=O)N2CCCCCC2)cc1C(=O)N(C)Cc1ccc(C)cc1 | 8.15%
COCCNC(=O)C(c1ccc(Cl)cc1)N(CCOC)C(=O)CCC(=O)Nc1nccs1 (centres unmarked) | -5.87%
CC(Cc1cccs1)NC(=S)Nc1ccc(F)cc1 (centres unmarked) | 1.32%
COC(=O)c1ccccc1NC(=O)COc1ccc(S(=O)(=O)N2CCCC2)cc1C | 12.3%
CCn1c(CSCc2ccc(C)cc2)nnc1SCC(=O)N1CCN(c2ccccc2)CC1 | -11%
CCOc1ccc(NC(=O)CC(C)S(=O)(=O)c2ccc3c(c2)NC(=O)CO3)cc1 (centres unmarked) | 14.8%
COC(=O)CNC(=O)CSc1nc2c(sc(=S)n2-c2ccccc2)c(=O)[nH]1 | 9.86%
